Source: patent US20260015434A1, “ANTIBODY MATERIALS AND METHODS TARGETING MICROBIAL POLYSACCHARIDES” (priority 2022, published 2026)

Tested on: PNAG conjugates on the array (dPNAG, PNAG and intermediate levels of deacetylation)
Assay: Neoglycoprotein (glycan) microarray binding, 816-component array
Details: ability to bind both dPNAG and PNAG and intermediate levels of deacetylation

| Molecule | PNAG Binding on Array |
| --- | --- |
| 120 × 266: 1467120 HC (SEQ ID NO: 45) with 5575266 LC (SEQ ID NO: 24) (antibody, V domains shown, Based on an antibody sequence.; Based on antibody sequence.) VH: QVQLVESGGGLVQPGGSLRLSCAASGFTFSSYWMSWVRQAPGKGLEWVANIKQDGSEKYYVDSVKGRFTISRDNAKNSLYLQMNSLRAEDTAVYYCARDPEGGLPDYWGQGTLVTVSS VL: [about 100 residues not listed]DTFGQGTRLEIK | No |
| 285 × 266: 4488285 HC (SEQ ID NO: 46) with 5575266 LC (SEQ ID NO: 24) (antibody, V domains shown, Based on an antibody sequence.; Based on antibody sequence.) VH: EVQLVESGGGLVQPGGSLRLSCAASGFTFSSYWMSWVRQAPGKGLEWVANIKQDGSEKYYVDSVKGRFTISRDNAKNSLYLQMNSLRAEDTAVYYCARDPYMGLIDYWGQGTLVTVSS VL: [about 100 residues not listed]DTFGQGTRLEIK | No |
| 729 × 266: 15729 HC (SEQ ID NO: 44) with 5575266 LC (SEQ ID NO: 24) (antibody, V domains shown, Based on an antibody sequence.; Based on antibody sequence.) VH: EVQLVESGGGLVQPGGSLRLSCAASGFTFSSYWMSWVRQAPGKGLEWVANIKQDGSEKYYVDSVKGRFTISRDNAKNSLYLQMNSLRAEDTAVYYCARDPDGRIFDYWGQGTLVTVSS VL: [about 100 residues not listed]DTFGQGTRLEIK | No |
